Experiment [1] addresses SARS-CoV-2 XBB.1.5 spike (S) protein (SARS-CoV-2). The experiment can be described thus: cell-based or functional assay.
For experiment [2] the target is unchanged. The experiment can be described thus: cell-based or functional assay. The source holds these as a separate data set.

Experimental findings from patent US20250326823A1 are described below.

Like-named read-outs stand apart in the source and are kept apart here.

B1: MX1545 (bispecific antibody)
chain: EIVLTQSPGTLSLSPGETATLSCRASQSFSSDLAWYQQKPGQAPRLLIYGASSRATGIPDRFSGSGSGTDFTLTISRLEPADFAVYYCQQYGSSPPVTFGGGTKVEIKRTVAAPSVFIFPPSDEQLKSGTASVVCLLNNFYPREAKVQWKVDNALQSGNSQESVTEQDSKDSTYSLSSTLTLSKADYEKHKVYACEVTHQGLSSPVTKSFNRGECGGGGSGGGGSGGGGSDTVMTQSPLSLPVTPGEPASISCRSSQSLLNSNGYNYLDWYVQKPGQSPQLLIYLGSNRASGVPDRFSGSGSGTDFTLKISRVEAEDVGVYYCMQPLQTPLFTFGPGTKVEIKGGGGSGGSGSGGGGSASGSGQVTLRESGPALVKPTQTLTLTCTFSGFSLSTRGVCVSWIRQPPGKALEWLAFIDWDDDKYYQTSLKTRLTISKDTSKNQVVLTMTNVHPVDTATYYCARISSHHGSSWCTTFDYWGQGALVTVSAGGSSGEVQLVESGGGLIQPGGSLRLSCAASGVIVSYNYMNWVRQAPGKGLEWVSVIYSGGSTFYADSVRGRFTISRDNSKNTLYLQMNSLRAEDTAVYYCARDLGPAGAFDIWGLGTMVTVSS[sequence of human IgG1 constant region with changes omitted]
Take B1: the pseudovirus neutralization IC50 came out at 0.19 nM in experiment [1] and 0.17 nM in experiment [2]. Moreover, the pseudovirus neutralization IC80 in experiment [1] came to 0.22 nM; in experiment [2], 0.51 nM.
